Experimental data as given in PubChem BioAssay AID651820 (National Center for Advancing Translational Sciences (NCATS), 2012).
Screen size: about 340,000 compounds; about 12,000 (3.5%) were called active. The shares of active, inactive and inconclusive entries below differ from those in the screen. Calls come from the whole dose curve; as a rule, active = well fitted inhibition curve with a large enough effect; inconclusive = small, poorly fitted or top-dose-only effect, or another doubt; inactive = no such curve, though single readings can be large or run the other way. No potency is given beside an inconclusive call; the fits are too rough.

Test: qHTS Assay for Inhibitors of Hepatitis C Virus (HCV)
Conditions: Huh7.5.1 HCVcc-Cre (HCVcc is cell-culture hepatitis C virus) infection, luciferase reporter, 44 h; activity change, negative = inhibition: at 41.8 µM (top of the series)
Method in brief: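 Reporter virus HCVcc-Cre (~0.5 moi) infects cells exposed to compound; seeding density 1,000 cells/well with 4 h settling beforehand. Luminescence, 15 sec read, taken 44 h post-infection following a 15 min RT substrate incubation.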
% is set by controls: 0 for no effect and ±100 for the full control effect; potency is the fitted concentration of half-maximal effect; tags give direction and shape of the fitted curve.

**Q.** For `CCCNC(=O)c1nnsc1S(=O)(=O)c1ccc(Cl)cc1`, which Potency is on record?
**A.** active: 6.31 µM

**Q.** For `COc1cc2nc(=S)n3[nH]c(COc4ccccc4C)nc3c2cc1OC`, which Potency is on record?
**A.** inactive

**Q.** For `Cc1ccccc1-n1c(-c2csc3ccccc23)n[nH]c1=S`, which Potency is on record?
**A.** inactive

**Q.** With `CN1CCN(C(c2ccc(Cl)cc2)c2cc(Cl)c3cccnc3c2O)CC1` (stereo not drawn) as the compound, how does the Potency read?
**A.** inconclusive [inhibitor, partial curve]

**Q.** With `Cn1c(CCN2CCN(c3ccccc3)CC2)nc2cc(NC(=O)c3ccco3)ccc21` as the compound, how does the Potency read?
**A.** inconclusive [inhibitor, full curve]

**Q.** With `Cc1ccc(N2CC(C(=O)Nc3cccnc3)CC2=O)cc1` (stereo not drawn) as the compound, how does the Potency read?
**A.** inconclusive [inhibitor, partial curve, poor fit]

**Q.** For `Oc1sc(C=Nc2ccc(F)cc2)c2ccccc12`, which Potency is on record?
**A.** inconclusive [inhibitor, single point]

**Q.** For `Cc1cc(C)n(-c2ccc(C(=O)Nc3ccccc3N3CCOCC3)cc2)n1`, which Potency is on record?
**A.** inconclusive [inhibitor, partial curve]

**Q.** For `O=[N+]([O-])c1c(NCCCO)cc(Sc2ccc(Cl)cc2)c2nonc12`, which Potency is on record?
**A.** inconclusive [inhibitor, single point]

**Q.** Which activity change, negative = inhibition does the source give for `CCN(CC)C(=O)c1ccc(NC(=O)c2cc(S(=O)(=O)N3CCCCCC3)ccc2OC)cc1` here?
**A.** inconclusive: -34.1% [inhibitor]

**Q.** With `CN(C)c1cccc(C(=O)N2CCCC(CCC(=O)N3CCN(c4ccccn4)CC3)C2)c1` (stereo not drawn) as the compound, how does the Potency read?
**A.** inconclusive [inhibitor, single point]

**Q.** Which Potency does the source give for `CCOC(=O)c1sc2nc(CC(=O)OC)nc(NCc3ccc(Cl)cc3)c2c1C` here?
**A.** active: 5.62 µM

**Q.** With `CCOc1ccc2nc(NC(=O)c3cc([N+](=O)[O-])ccc3N3CCOCC3)sc2c1` as the compound, how does the Potency read?
**A.** inconclusive [inhibitor, partial curve]

**Q.** For `O=C(c1cccc(S(=O)(=O)N2CCCC2)c1)c1cccc(S(=O)(=O)N2CCCC2)c1`, which Potency is on record?
**A.** inconclusive [inhibitor, single point]

**Q.** With `Cc1cc(C)cc(C(=O)Nc2ccc(N3CCN(C(=O)c4ccco4)CC3)cc2)c1` as the compound, how does the Potency read?
**A.** inconclusive [inhibitor, partial curve, poor fit]

**Q.** With `O=C(Cc1ccc(F)cc1)N1CCN=C1SCc1ccc([N+](=O)[O-])cc1` as the compound, how does the Potency read?
**A.** inconclusive [inhibitor, single point]

**Q.** Which Potency does the source give for `C=CCOC(=O)C1=C(C)NC(SC)=C(C#N)C1c1ccc(OCC)cc1` (stereo not drawn) here?
**A.** inactive

**Q.** Which Potency does the source give for `COCCn1c(Cc2ccccc2)nnc1SCC(=O)NC1CCCCC1` here?
**A.** inactive

**Q.** Which Potency does the source give for `Cc1ccc(S(=O)(=O)N2CCCCC2CCNC(=O)C(=O)NCC2CCCO2)cc1` (stereo not drawn) here?
**A.** inactive

**Q.** With `COc1ccc(-c2noc(CCC(=O)NC3CCCCCC3)n2)cc1` as the compound, how does the Potency read?
**A.** inactive

**Q.** For `O=C(Nc1ccc(O)c2c(=O)cc(-c3cccc(Cl)c3)oc12)c1cccc(Cl)c1`, which Potency is on record?
**A.** inconclusive [inhibitor, single point]

**Q.** Which Potency does the source give for `CC(=O)c1c(C)[nH]c(C(=O)NCc2cccc(Cl)c2)c1C` here?
**A.** active: 11.2 µM

**Q.** For `COc1ccccc1CCNC(=O)c1cc(-c2ccncc2)nc2ccc(Br)cc12`, which Potency is on record?
**A.** active: 0.891 µM

**Q.** With `Cc1cc2cc(CCNC(=O)CCCc3ccccc3)c(=O)[nH]c2cc1C` as the compound, how does the Potency read?
**A.** inactive

**Q.** For `CCOC(=O)Cn1cnc2c(nnn2-c2ccc(OC)cc2)c1=O`, which Potency is on record?
**A.** inactive

**Q.** With `CC(C)(C)c1csc(NC(=O)c2ccc3nccnc3c2)n1` as the compound, how does the Potency read?
**A.** inactive

**Q.** Which Potency does the source give for `CN(C)c1cccc(C(=O)Nc2ccc(N3CCOCC3)cc2)c1` here?
**A.** inactive

**Q.** For `O=C(C(NS(=O)(=O)c1cccc2nsnc12)c1ccccc1)N1CCN(c2ccccc2)CC1` (stereo not drawn), which Potency is on record?
**A.** inconclusive [inhibitor, single point]

**Q.** Which Potency does the source give for `Cc1ccc(Cl)cc1NC(=S)NCCCSC1CCCCC1` here?
**A.** active: 10 µM

**Q.** Which Potency does the source give for `O=C(CNC(=O)c1ccccc1Cl)OC1CCOC1=O` (stereo not drawn) here?
**A.** inactive

**Q.** With `CN(C)CCN(CC1CCCN(Cc2ccccc2F)C1)C(=O)Cc1c(F)cccc1F` (stereo not drawn) as the compound, how does the Potency read?
**A.** inconclusive [inhibitor, single point]

**Q.** For `Cc1cc(C)n(-c2nc3ccccc3c(=O)n2OCC(=O)Nc2c(C)cccc2C)n1`, which Potency is on record?
**A.** inactive

**Q.** For `Cc1cc(C)n(-c2cc(C(C)(C)C)nc3c(-c4ccccc4)cnn23)n1`, which activity change, negative = inhibition is on record?
**A.** inconclusive: -49.3% [inhibitor]

**Q.** For `CCOC(=O)c1sc2nc3n(c(=O)c2c1C)CCC3`, which Potency is on record?
**A.** inactive

**Q.** Which Potency does the source give for `COc1cc(CNc2ccc(S(N)(=O)=O)cc2)ccc1OCc1ccccc1F` here?
**A.** active: 11.2 µM

**Q.** Which Potency does the source give for `COc1ccc(-c2noc(COc3ccc(C)c(C)c3)n2)cc1OC` here?
**A.** inconclusive [inhibitor, full curve]

**Q.** With `O=c1c2ccccc2nc(SCc2ccccc2)n1CC1CCCO1` (stereo not drawn) as the compound, how does the Potency read?
**A.** inconclusive [inhibitor, single point]

**Q.** With `COc1cc([N+](=O)[O-])ccc1NC(=O)N1CCCCCC1` as the compound, how does the Potency read?
**A.** inconclusive [inhibitor, single point]

**Q.** With `O=C(Nc1nc2ccccc2c(=O)[nH]1)c1ccccc1SCc1ccccc1` as the compound, how does the Potency read?
**A.** inconclusive [inhibitor, full curve]

**Q.** For `COc1ccc(CCNC(=O)c2cc(-c3ccc(C)c(C)c3O)n[nH]2)cc1OC`, which Potency is on record?
**A.** inconclusive [inhibitor, single point]

**Q.** With `CSC1=NC(C(Cl)(Cl)Cl)N=C(c2ccc(C)cc2)N1` (stereo not drawn) as the compound, how does the Potency read?
**A.** inconclusive [inhibitor, full curve, poor fit]

**Q.** With `COc1cc(/C=N/O)ccc1Oc1ccc([N+](=O)[O-])cc1[N+](=O)[O-]` as the compound, how does the Potency read?
**A.** inconclusive [inhibitor, single point]

**Q.** Which Potency does the source give for `O=[N+]([O-])c1cccc(C2=NC(c3ccccc3)CO2)c1` (stereo not drawn) here?
**A.** inconclusive [inhibitor, single point]

**Q.** With `CC(=O)Nc1ccc(OCC(O)CN2CCN(c3cc(Cl)ccc3C)CC2)cc1` (stereo not drawn) as the compound, how does the Potency read?
**A.** inconclusive [inhibitor, single point]

**Q.** For `O=C(COC(=O)c1n[nH]c2ccccc12)NCCc1ccc(Cl)cc1`, which Potency is on record?
**A.** inconclusive [inhibitor, single point]

**Q.** For `COc1ccc(C(c2nnnn2C2CCCCC2)N2CCN(c3ccc(OC)cc3)CC2)cc1` (stereo not drawn), which Potency is on record?
**A.** inconclusive [inhibitor, partial curve]

**Q.** For `O=C(CCc1nc2ccccc2c(=O)[nH]1)Nc1ccc(F)cc1`, which Potency is on record?
**A.** inactive

**Q.** With `O=C(CCCN1CCC(O)(c2ccc(Cl)cc2)CC1)c1ccc(F)cc1` as the compound, how does the Potency read?
**A.** inconclusive [inhibitor, partial curve]

**Q.** And the activity change, negative = inhibition?
**A.** inactive: -17.3% [at 8.37 µM]

**Q.** Which Potency does the source give for `CCOC(=O)c1[nH]c(C)c(C(=O)Nc2cccc(Cl)c2C)c1C` here?
**A.** inconclusive [inhibitor, partial curve]

**Q.** With `CN(C)S(=O)(=O)c1cccc(C(=O)OCC(=O)Nc2sccc2C(N)=O)c1` as the compound, how does the Potency read?
**A.** inconclusive [inhibitor, partial curve]

**Q.** With `Cc1cc(=O)n2nc(N3CCCC(C(=O)NCCCN4CC(C)CC(C)C4)C3)sc2n1` (stereo not drawn) as the compound, how does the Potency read?
**A.** inactive

**Q.** For `Fc1ccc(-[n+]2nc(Nc3ccccc3)sc2-c2ccc(OCc3ccccc3)cc2)cc1`, which Potency is on record?
**A.** inactive

**Q.** Which Potency does the source give for `COc1ccc(-c2cc(C(=O)Nc3c(C)nn(Cc4ccccc4)c3C)no2)cc1` here?
**A.** inconclusive [inhibitor, full curve, poor fit]

**Q.** Which Potency does the source give for `COc1ccc(CN(CCC(c2ccccc2)c2ccco2)C(=O)c2ccco2)cc1` (stereo not drawn) here?
**A.** inactive

**Q.** For `CCOC(=O)c1c[nH]c2c3c(ccc2c1=O)CCCC3`, which Potency is on record?
**A.** inconclusive [inhibitor, single point]

**Q.** With `Cc1ccccc1NC(=S)NC(=O)C1CCCCC1` as the compound, how does the Potency read?
**A.** inactive

**Q.** With `COc1cc(S(=O)(=O)NC(C)C)ccc1Cl` as the compound, how does the Potency read?
**A.** inconclusive [inhibitor, single point]

**Q.** With `CCN(CC)CCNC(=O)C1CCN(S(=O)(=O)N2CCCCC2)CC1` as the compound, how does the Potency read?
**A.** inactive

**Q.** Which Potency does the source give for `Cc1ccc(S(=O)(=O)CCC(=O)OCC(=O)N2CCN(S(=O)(=O)c3ccccc3)CC2)cc1` here?
**A.** inconclusive [inhibitor, partial curve]

**Q.** For `NNc1nnc2c3cc(F)ccc3n(Cc3ccccc3)c2n1`, which Potency is on record?
**A.** inconclusive [inhibitor, single point]

**Q.** Which Potency does the source give for `COC(=O)COc1c(/C=C\c2nc(O)c([N+](=O)[O-])c(=O)[nH]2)cccc1OC` here?
**A.** inactive

**Q.** For `CC1(C(=O)OCC(=O)Nc2ccc3ccccc3c2)CC1(Cl)Cl` (stereo not drawn), which Potency is on record?
**A.** inconclusive [inhibitor, single point]

**Q.** For `Cc1csc(NC(=O)C2CCCN(S(=O)(=O)c3ccc(Br)s3)C2)n1` (stereo not drawn), which Potency is on record?
**A.** inconclusive [inhibitor, partial curve]

**Q.** Which Potency does the source give for `NS(=O)(=O)c1ccc(NS(=O)(=O)c2ccc(NC(=O)C3CC3)cc2)cc1` here?
**A.** inactive

**Q.** For `Cc1cccc(NC(=O)Cn2c(O)c(N=NC(N)=S)c3ccccc32)c1`, which Potency is on record?
**A.** inconclusive [inhibitor, full curve, poor fit]

**Q.** Which Potency does the source give for `O=[N+]([O-])c1ccc(/C=N/Nc2ncc(-c3ccccc3)cn2)cc1` here?
**A.** inactive

**Q.** For `COc1ccc(-n2c(SCC(=O)N3CCCCC3)nc3ccccc3c2=O)cc1`, which Potency is on record?
**A.** inactive

**Q.** For `CCC(=O)N1CCN(c2ccc(NC(=S)NC(=O)COc3ccccc3)cc2)CC1`, which Potency is on record?
**A.** inactive

**Q.** With `CCOC(=O)c1ccc(NC(=O)CSc2nc(NC(=O)c3ccccc3)c3c(C)c(C)oc3n2)cc1` as the compound, how does the Potency read?
**A.** inconclusive [inhibitor, single point]

**Q.** For `CC(=O)Nc1ccc2c(c1)c1ccccc1n2C(C)=O`, which Potency is on record?
**A.** inconclusive [inhibitor, single point]

**Q.** Which Potency does the source give for `COc1ccc(-n2c(C)cc(C(=O)COC(=O)c3ccc(O)cc3O)c2C)cc1` here?
**A.** active: 10 µM

**Q.** For `Cc1c(Cl)cccc1-n1c(SCC(=O)N2CCC(C(=O)O)CC2)nnc1-c1ccncc1`, which Potency is on record?
**A.** inactive
